Among all 340,000 compounds or so, about 6,900 (2%) were called active. No stated cut-off is given here; in the data, active means inhibition above about 30%; inactive means below that, where a call was filed. The entries are a selection whose mix differs from that of the whole data set. Where no call is shown, the source filed none.

Chain of UniProt P14416 (P14416 whole entry, looked up): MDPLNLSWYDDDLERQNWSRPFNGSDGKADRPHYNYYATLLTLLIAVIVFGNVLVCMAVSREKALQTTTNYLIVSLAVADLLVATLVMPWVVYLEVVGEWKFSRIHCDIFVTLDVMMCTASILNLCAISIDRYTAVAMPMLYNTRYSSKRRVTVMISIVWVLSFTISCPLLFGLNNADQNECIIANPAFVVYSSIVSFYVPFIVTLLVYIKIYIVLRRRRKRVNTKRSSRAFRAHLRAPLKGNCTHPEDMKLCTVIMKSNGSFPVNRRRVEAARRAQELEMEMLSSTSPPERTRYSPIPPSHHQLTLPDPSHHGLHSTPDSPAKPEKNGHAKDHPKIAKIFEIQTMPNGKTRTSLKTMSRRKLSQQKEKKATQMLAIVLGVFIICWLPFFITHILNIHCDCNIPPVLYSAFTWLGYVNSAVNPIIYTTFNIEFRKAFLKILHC

The target of the assay is D(2) dopamine receptor (Homo sapiens) (UniProt P14416). The assay is described as follows: HTS Assay for Allosteric Antagonists of the Human D2 Dopamine Receptor: Primary Screen for Antagonists. Further: 0% is about no effect. The settings on record: HEK293 TREx D2 cells, calcium flux, dopamine EC80; at 10 µM; stronger effect = higher value. In outline:
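Antagonism is scored as inhibition of an EC80 dopamine-evoked calcium signal in a force-coupled, tetracycline-inducible HEK293 T-REx D2 line, with compound present 180 s before agonist.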
As to `CCOC(=O)c1[nH]c(C)c(CCC(=O)Nc2cc(C)ccc2OC)c1C`, the inhibition was -14.8%. The figure for `CCn1cc([N+](=O)[O-])c(C(=O)Nc2ccc3c(c2)OCCO3)n1` is active: 69.2%; for `Cc1ccc(Cl)cc1N1CCN(C(=O)c2ccc3c(c2)N(Cc2ccc(F)cc2)CCS3)CC1` it is 6.19%. The figure for `CCOc1cc(CNC(=O)c2ccc3c(c2)NC(=O)C2CCCCN32)cc(OCC)c1OCC` (configuration not stated) is 19.3%; for `CCOc1ccccc1OCCCn1c(-c2ccc(Cl)cc2)nc2ccccc2c1=O` it is -8.36%. The figure for `Cc1cn2c(=O)cc(COC(=O)c3ccc(NC(=O)COc4ccccc4F)cc3)nc2s1` is -20%; for `CCOC(=O)C1CCN(C(=O)c2ccc(-n3ccc4ccccc43)s2)CC1` it is 1.83%; for `COc1ccc(Cn2ccn(Cc3cccc(OC)c3)c(=O)c2=O)cc1` it is -13.1%. With `Cc1ccccc1C1CC(=O)Nc2ccc3ccccc3c21` (configuration not stated), the inhibition was determined as 0.835%. Next, `Cc1ccc(C(=O)c2cn(CC(=O)Nc3ccc(C)cc3Cl)c3nc(C)ccc3c2=O)cc1`: -10%; `Cc1cccc(NC(=O)N2CC(=O)Nc3sc4c(c3C2c2ccccc2)CCCC4)c1C` (configuration not stated): 3.04%.

For the compound `CC(=O)c1cccc(NC(=O)C2CCN(S(=O)(=O)c3ccc4c(c3)oc(=O)n4C)CC2)c1`, the inhibition was 18.6%. Next, `CCOC(=O)c1cccc(NC(=O)CCn2c(-c3ccc(F)cc3)cc(C(=O)OCC)c2C)c1`: -13.3%.

With `COc1cc(OC)cc(C(=O)NCC(=O)Nc2ccc(OC)c(Cl)c2)c1`, the inhibition is active: 36.8%. Next, `O=C(CSCc1ccccc1Cl)N1CCN(c2ccc(Cl)cc2)CC1`: 4.65%; `COc1ccc(NC(=O)c2ccc3c(c2)OCO3)cc1Cl`: active: 39.3%. Next, `COc1c(C)cccc1C(=O)Nc1cccc2ccc(C)nc12`: -1.15%. Next, `COC(=O)c1ccccc1NC(=O)NC1CCN(Cc2ccccc2)CC1`: active: 63.9%. Regarding `CCCS(=O)(=O)N1CC(=O)N(c2ccc(Cl)cc2C)C(C)(C(=O)NC2CCCC2)C1` (configuration not stated), the inhibition was -9.97%.

Take `COc1cc2nc(NC(=O)c3ccc(S(=O)(=O)N4CCOCC4)cc3)sc2cc1OC`: the inhibition is -5.77%. Next, `COc1ccc(NC(=O)CSC2=Nc3ccccc3C3=NC(CCC(=O)NC4CCCCC4)C(=O)N23)cc1` (configuration not stated): 21.2%; `Cc1cc(C)nc(NC(C)(C)C(=O)O)n1`: active: 32.5%; `CCc1nn(Cc2ccc(Cl)cc2)c(=O)c2cc3cc(C)ccc3n12`: 7.36%.

On to `Cc1cccc(NS(=O)(=O)c2ccc3c(c2)C(C)(C)C(=O)N3C)c1`, for which the inhibition is -18.1%. The figure for `O=C(CN(c1ccccc1)S(=O)(=O)c1ccc(Cl)cc1)Nc1cccnc1` is active: 33.8%; for `Cc1ccc(NC(=O)c2sc3nc4c(cc3c2N)CN(Cc2ccccc2)CC4)cc1` it is 15%. For the compound `Cc1oc2ncn(C)c(=O)c2c1C(=O)N1CCN(c2ccccc2F)CC1`, the inhibition is -13.7%. Next, `CCN1C(=O)c2ccccc2Sc2ccc(NC(=O)c3ccc(Cl)cc3)cc21`: 15.7%.

As for `COc1ccc2c(c1)c1c(c(=O)n(CCc3ccccc3)c(=O)n1Cc1ccc(F)cc1)n2C`, the inhibition is 3.43%.

Regarding `CCC(=O)Nc1cccc(C(=O)OCc2cc(=O)n3nc(CC)sc3n2)c1`, the inhibition was -0.331%. Next, `Cc1ccccc1Cn1c(CN2CCC(C(=O)NCCc3ccccc3)CC2)cc2ccccc21`: 3.98%; `CCN(CC)CCCNC(=O)c1nn(C)c2c1CS(=O)(=O)c1ccccc1-2`: 4.45%; `COc1ccc2c(c1)c1c(c(=O)n(-c3ccc(F)c(Cl)c3)c(=O)n1Cc1ccccc1C)n2C`: -4.42%.

For the compound `Cc1ccc2sc(NC(=O)c3ccc4c(c3)OCCO4)nc2c1C`, the inhibition is 2.74%. In the case of `COc1ccc(NC(=O)c2c(-c3ccc(C)cc3)nnc3ccccc23)c(OC)c1`, the inhibition stood at 4.86%.

For `CCN(CC)c1nc2ccccc2nc1C(=O)Nc1cccc(C(C)=O)c1`, the inhibition was 24.4%. Regarding `CCSC1=NC2(CCN(C(=O)NC3CCCCC3)CC2)N=C1c1ccc(Cl)cc1`, the inhibition was -7.16%. Next, `O=C(NCCCN1CCN(c2ccc(F)cc2)CC1)c1ccc2nc(Cc3ccccc3)oc2c1`: -19.1%. The figure for `CCOCCc1nn2c(=O)cc(COC(=O)C3CCCCC3)nc2s1` is 8.44%; for `CCOC(=O)c1c(C)[nH]c(C)c1S(=O)(=O)N1CCCC(C(=O)N2CCN(c3ccccc3)CC2)C1` (configuration not stated) it is 13.2%. With `Cc1ccc2c(=O)cc(C(=O)Nc3cccc(C(F)(F)F)c3)oc2c1C`, the inhibition stood at 12.3%. The figure for `Cc1cccn2c(=O)c3cc(C(=O)NC(C)c4ccccc4)c(=N)n(CCCO)c3nc12` (configuration not stated) is -4.55%; for `Cc1ccc(NC(=O)CSc2nnc3scc(-c4ccccc4)n23)cc1` it is 6.65%; for `COC(=O)c1ccc(OCC2c3cc(OC)c(OC)cc3CCN2C(=O)c2ccc(F)cc2)cc1` (configuration not stated) it is 0.973%. Next, `COCCCNc1oc(-c2ccc(COc3ccc(Cl)cc3)o2)nc1C#N`: -1.24%; `CCCCCNC(=O)CCCCCn1c(=O)[nH]c2ccsc2c1=O`: -8.94%. Next, `O=C(Nc1sc2c(c1C(=O)NCC1CCCO1)CCC2)c1cc(=O)c2ccccc2o1` (configuration not stated): -11.3%. Turning to `COc1ccc(CNC(=O)C2CCN(c3nc4ccccc4[nH]3)CC2)cc1OC`, the inhibition was -5.26%. The figure for `CCn1cc(C(=O)OCC(=O)Nc2cccc(C(C)=O)c2)c(=O)c2ccc(C)nc21` is -7.1%. The figure for `CCOc1ccc(C2CC(=O)Nc3c2c(=O)nc(SCc2ccccc2C)n3C)cc1OC` (configuration not stated) is -5.84%; for `COc1ccc(Cn2c(=O)c3oc4ccccc4c3n(Cc3ccc(Cl)cc3)c2=O)cc1` it is -10.9%; for `COc1cccc(NC(=O)CC2NCCNC2=O)c1` (configuration not stated) it is 12.2%. `S=c1[nH]c(-c2ccccc2)cn1/N=C/c1ccc(Br)cc1`: the inhibition is active: 36.5%.

Take `CC(Nc1c[nH]c(=O)[nH]c1=O)c1ccccc1` (configuration not stated): the inhibition is active: 69.1%. The figure for `COc1ccc(C(=O)NCC(c2ccc(N(C)C)cc2)N2CCc3ccccc32)c(OC)c1` (configuration not stated) is 5.06%. Next, `CCc1cc(C(=O)Nc2cnn(Cc3ccccc3C)c2)no1`: 15.3%; `COc1ccc(-c2nc3c(C#N)c[nH]n3c2NC2CCCC2)c(OC)c1`: -3.79%.

For the compound `Cc1ccc(NC(=O)CCc2c(C)nc3cc(-c4ccccc4)nn3c2C)cc1F`, the inhibition came to 1.56%.

As for `Cc1ccc2c(=O)cc(C(=O)Nc3sc4c(c3C(=O)NCc3cccnc3)CCCC4)oc2c1C`, the inhibition is -3.95%. The figure for `Cc1cc(C)cc(C(=O)NCC(=O)OCN2C(=O)c3ccccc3C2=O)c1` is active: 44.1%; for `Cc1cc(C(=O)OCC(=O)Nc2cc(S(=O)(=O)N(C)C)ccc2C)c2ccccc2n1` it is active: 36.9%. In the case of `COc1ccc(C2N(C(=O)N(C)C)CCN2S(=O)(=O)c2ccc(OC)cc2)cc1` (configuration not stated), the inhibition is active: 37%. The figure for `COc1ccc(Cn2ccc3nc(C)c(C(=O)NCc4ccc(F)cc4)cc3c2=O)cc1` is 23.1%. On to `Cc1ccc(Cl)cc1N1CCN(Cc2nnc(-c3ccc4c(c3)OCO4)o2)CC1`, for which the inhibition was -0.854%. Next, `Cc1cc(NC(=O)C2CCN(S(=O)(=O)c3ccc(Br)s3)CC2)ccc1Br`: 10.4%; `Cc1ccc(CNC(=O)CSc2n[nH]c(-c3ccc(F)cc3)n2)cc1`: -8.04%. The figure for `O=S(=O)(c1ccc2nc(N3CCN(c4cccc(Cl)c4)CC3)ccc2c1)N1CCCCC1` is -3.54%; for `CCN(CC)c1ccc(-c2nc(-c3ccccc3C)no2)cc1[N+](=O)[O-]` it is 17.6%. With `Cc1ccc(Nc2nc(C)nc(N)c2S(=O)(=O)c2ccccc2)cc1`, the inhibition was -2.08%. Turning to `Cc1ccc(C)c(Cn2c(C3CC(=O)N(c4ccccc4C)C3)nc3ccccc32)c1` (configuration not stated), the inhibition was -8.01%. The figure for `CC1=C(C(=O)Nc2ccccc2)C(c2cccn2C)n2ncnc2N1` (configuration not stated) is 9.9%. The figure for `COc1ccc(Cn2c(=O)c3oc4ccccc4c3n(CC(=O)Nc3ccc(F)cc3F)c2=O)cc1` is 5.32%; for `CCN(CC)c1ccc(NS(=O)(=O)c2cc3[nH]c(=O)c(=O)[nH]c3cc2C)c(C)c1` it is -5.86%.

As to `Cc1cc2oc(C(=O)Nc3ccc(S(=O)(=O)N4CCCCCC4)cc3)cc(=O)c2cc1C`, the inhibition was found to be 2.24%. The figure for `CCOc1ccc(-n2nc3ccc(NC(=O)COc4ccc(OC)cc4)cc3n2)cc1` is -11.6%; for `CC(C)c1ccc(OC(=O)c2cc(-c3ccccc3)on2)cc1` it is -7.8%; for `Cc1ccc(NC(=O)Nc2nnc(N(C)Cc3ccccc3)s2)c(C)c1` it is 9.16%. For the compound `CCCSc1ncc(Cl)c(C(=O)Nc2c(C(=O)Nc3ccc(C)cc3)oc3ccccc23)n1`, the inhibition came out at 19.3%. In the case of `CC(=O)N1CCc2c(sc3nc(SCC(C)C)n(-c4ccc(F)c(Cl)c4)c(=O)c23)C1`, the inhibition was -19.8%. Next, `COC(=O)c1ccc(C2C(C(=O)Nc3ccccc3)=C(C)Nc3nc4ccccc4n32)cc1` (configuration not stated): -1.59%; `CCc1nc(Oc2cccc(F)c2)c2oc3ccccc3c2n1`: 9.91%; `COc1cc(C)cc2oc(=O)c(CC(=O)NCc3cccc(Cl)c3)c(C)c12`: -0.0751%.

For `Cc1ccc(NC(=O)CSc2nc(-c3ccco3)cc(C(F)(F)F)n2)cc1`, the inhibition is -2.56%.

In the case of `Cc1ccc(C)c(OC(=O)CSc2nnc(CNC(=O)c3ccccc3)o2)c1`, the inhibition turned out to be 5.63%.

For the compound `CC1=C(c2ccc(C)cc2)S(=O)(=O)NC1=NCCCN1CCN(c2ccc(F)cc2)CC1`, the inhibition was -1.12%. Take `N#Cc1c(-c2ccccc2)nc(SCc2cccc(Cl)c2)[nH]c1=O`: the inhibition is active: 30.4%. For `O=c1cc(-c2ccccc2)n2c(SCc3ccc(F)cc3)nnc2[nH]1`, the inhibition is -11.9%. For `Cc1cn2c(=O)cc(COC(=O)COc3ccccc3C)nc2s1`, the inhibition is -5.06%. Next, `CCN(Cc1ccccc1)C(=O)Cn1c(=O)n(-c2ccc(C)c(C)c2)c(=O)c2c(C)c(C)sc21`: -1.61%; `O=c1oc2ccccc2cc1-c1cn2cc(Cc3ccc(Cl)cc3)sc2n1`: 4.09%. Turning to `O=C(Nc1cccc(C(F)(F)F)c1)c1cc2ccc3cccnc3c2[nH]1`, the inhibition was determined as 1.27%. The figure for `COc1ccc(CNc2oc(-c3ccc(COc4ccccc4C)o3)nc2C#N)cc1` is 16.9%; for `CC(C)(C)CC(=O)Nc1cc2c3c(c1)CCC(=O)N3CCC2` it is active: 35.3%.

In the case of `COc1cc(OC)cc(C(=O)Nc2ccc(S(=O)(=O)Nc3nc(C)cc(C)n3)cc2)c1`, the inhibition is active: 33.5%.

As for `CCn1cc(C(=O)N2CCN(c3ccccc3F)CC2)c(=O)c2cc(S(=O)(=O)N(C)C)ccc21`, the inhibition is -15.6%.

With `CCN1CCN(C(=O)CS(=O)Cc2nc(-c3ccc(OC)cc3)oc2C)CC1` (configuration not stated), the inhibition is active: 39.9%. For `CC(NC(=O)c1ccccc1Cl)C(=O)Nc1ccc2c(c1)OCO2` (configuration not stated), the inhibition was active: 72.7%.

In general, inhibition refers to the change of the read-out against control, counted positive when it falls.

The values are drawn from PubChem BioAssay AID485344 (National Center for Advancing Translational Sciences (NCATS), 2010).
